In the supplement of paper PMC11417369:
The other results are listed elsewhere or left out.

test system: PF3D7_0420300 AP2 domain 1 (GST-tagged); assay: gcPBM binding intensity (ln(normalized median fluorescence intensity)); higher = stronger DNA binding
Outline: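 Using an Agilent 4 × 180k array, primer-extended double-stranded 36-bp intergenic genomic probes and negative controls were exposed for 1 h to GST-fused P. falciparum DNA-binding domains expressed in E. coli. Binding was carried out in 1× PBS with 1% milk, 0.2 mg/ml BSA, 0.5% salmon testes DNA and 0.03% Triton X-100, and protein was detected with Alexa488 anti-GST antibody and a 488 nm scan. Binding intensity is the highest Masliner-normalised natural-log median intensity across replicate spots of either probe orientation.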

First: AAAACAAACAGACACACACACATATTTATATTTATA [CACACA_site7681]
Second: TTATATTAAACAAACACACACATATAAATATAAATA [CACACA_site7174]
The “gcPBM binding intensity (ln)” value of the first is higher: 10.1 for the first, 9.93 for the second.

ATATATTTTTATGTAGTGCATTTAAATAATAAATGC and “ATTTTTTCCAATTCTTTACCTTAGAAAGGTGTTCAA [CACACA_negctrl_site1401]” are the same in “gcPBM binding intensity (ln)” value: 9.05 for the first, 9.05 for the second.

First: ACCTCATAATATTTAACACACAAAATTATATGTATG [CACACA_site1704]
Second: ATATATATATAATGAAGTACGAAAAAATAAGAAATG [XGTACX_site4001]
The “gcPBM binding intensity (ln)” value of the first is lower: 9.57 for the first, 9.65 for the second.

First: ATTCTAAATAAATGTACACACAAAAATAAATGTATA [CACACA_site1732]
Second: AATGATCAGATATACACACACACAAAAAAAAAAAAA [CACACA_site7806]
The “gcPBM binding intensity (ln)” value of the first is lower: 9.54 for the first, 9.99 for the second.

Going from “GTAAATAAATAAATAAATAAATATATATATATATAT [CACACA_negctrl_site1737]” to “AATAAAAAAAAATTCACACAAAGTTAGATTAACTAT [CACACA_site4224]”, the “gcPBM binding intensity (ln)” value rises from 9.11 to 9.26.

Compared with “TATGAATATTGCATGTGTACCTATTATCCTTTTAAA [XGTACX_site4311]”, “ATAATTATTTTCCCGTGTACTTATTTTTTTCAAGTA [XGTACX_site8843]” is lower in “gcPBM binding intensity (ln)” value: 9.39 for the first, 9.35 for the second.

Compared with “ATATAAAATAAAAAAAAAAAAAAAAAAAAAAAAAAA [CACACA_negctrl_site1234]”, “TTTTTGTATCCTTTTAATATTAAATAAAAGGAATGT [CACACA_negctrl_site1468]” is higher in “gcPBM binding intensity (ln)” value: 8.39 for the first, 8.99 for the second.

Compared with “TTAATGTTTGAAAGAGTGCACATAACAAAAAAAAAA [GTGCAC_site9623]”, “TAATTAAAAAATGAATAAATGAATAAATAAATAAAT [CACACA_negctrl_site838]” is lower in “gcPBM binding intensity (ln)” value: 9.31 for the first, 9.26 for the second.

Going from “AAAAAAAAAAAGATAAATACAAGTTACACAAAAAAA [GTGCAC_negctrl_site664]” to ACGTTGCGACGCAAGGTGCTTATTTTCTTATAAATA, the “gcPBM binding intensity (ln)” value falls from 9.34 to 9.04.

Compared with “AACAAATTTTTTATTAAACACACAAACATATATATA [CACACA_site8588]”, “TGTGAATATATCTTTAAAAAGGATAAATAATAATTT [CACACA_negctrl_site507]” is lower in “gcPBM binding intensity (ln)” value: 9.47 for the first, 9.04 for the second.

First: GCTCATTGAAATTATACACACCAAATATATAAATAT [CACACA_site5385]
Second: AATAAGAATTAAAAATGTACAAAAAAATGTATTTAT [XGTACX_site8005]
The “gcPBM binding intensity (ln)” value of the first is higher: 9.4 for the first, 9.35 for the second.

Compared with “AAGTATAAAATATTTTGTACTTAAAAAATTATATGG [XGTACX_site2180]”, “AGTGGGATTTTTAATTGTACATAAATAATATCATAA [XGTACX_site4163]” is lower in “gcPBM binding intensity (ln)” value: 9.08 for the first, 9.02 for the second.

Going from “CATGTTATATATATATGTACTAAAAATATAATATAA [XGTACX_site1978]” to “TTTTTTTTTTTTGGTAGTACATAAATATTTTATGGA [XGTACX_site6851]”, the “gcPBM binding intensity (ln)” value falls from 9.18 to 8.93.

Going from “CAATAAATAATAAATACATGCAAGTATGAAGATATA [TGCATGCA_site859]” to “TGTTTGATGGTACACGTACACACCTTGCAAATATTT [CACACA_site888]”, the “gcPBM binding intensity (ln)” value rises from 9.46 to 9.57.

Compared with “AATATAAAATAGAAAAATGAAAAAAAAAAAAAGGGT [CACACA_negctrl_site1263]”, “TATATATATTTTAACACACACATATATATATTTATA [CACACA_site2765]” is lower in “gcPBM binding intensity (ln)” value: 9.92 for the first, 9.66 for the second.

Compared with “AGCAGTTTTTTTTTTTTTTTTTTTTTTATTAAAAGC [XGTACX_negctrl_site392]”, “ATAATAAATCATCATATTACATTTATCTTTGTTGGA [CACACA_negctrl_site849]” is higher in “gcPBM binding intensity (ln)” value: 8.95 for the first, 9.18 for the second.

First: TACTTATTTTTATAGCATTTCACGGAGGTAGTAATA [CACACA_negctrl_site468]
Second: AACTGTAATTTTATACGTACATAAATAATATTATAT [XGTACX_site4277]
The “gcPBM binding intensity (ln)” value of the first is lower: 9.19 for the first, 9.21 for the second.

Going from “TTTGCAACATATAAAAGTACAAATAATATATTTATT [XGTACX_site890]” to “TTTATTATATGCACACGTACATATAATATATATATA [XGTACX_site4108]”, the “gcPBM binding intensity (ln)” value rises from 9.16 to 9.19.

Going from “TTATGGTATAAAAAAATACACACTTATATATATTCT [CACACA_site488]” to “TTTTATTTTTTCTATACATGCATGTCCAATTTTCTT [TGCATGCA_site304]”, the “gcPBM binding intensity (ln)” value rises from 9.35 to 9.6.

Going from “GTTTTTTTATAAAATTTTTATATAATTCTTTTATAA [CACACA_negctrl_site1605]” to “AAAAAAAAAAAAAACACACATACACGCCCACCCATA [CACACA_site3391]”, the “gcPBM binding intensity (ln)” value rises from 9.19 to 10.2.

First: TAATAATAAAAAATACGTACATATTATTTATATATG [XGTACX_site853]
Second: CATTTTATTCTATATGCATGTTAAAAAATGTGTTGA [TGCATGCA_site128]
The “gcPBM binding intensity (ln)” value of the first is lower: 9.08 for the first, 9.12 for the second.

Compared with “ATATATAAGAACATATATATTGGAAATATTGAATTT [XGTACX_negctrl_site121]”, “AATAAAAATATTATATGTACATATTTTAATATATAT [XGTACX_site1259]” is higher in “gcPBM binding intensity (ln)” value: 9.19 for the first, 9.21 for the second.

Compared with “ATAATACCCATTATCTTACAACAAAATGCAAACAAA [CACACA_negctrl_site1037]”, “AACATAATATCATATACACACAAAAATATTGAAATA [CACACA_site2160]” is higher in “gcPBM binding intensity (ln)” value: 9.32 for the first, 9.78 for the second.

First: AAAAAAAAAGAAAAACGTACGTTTATTTAATATATA [XGTACX_site4018]
Second: TTATATAACTTTTCTAGTACTTGTATAAATTCCTAC [XGTACX_site3685]
The “gcPBM binding intensity (ln)” value of the first is lower: 9.06 for the first, 9.16 for the second.

First: AAAATTAGATTATGCACACACACTTAAAAATAATAA [CACACA_site1975]
Second: AAGAACATATTATATACATGCATAATTCGATAGATT [TGCATGCA_site882]
The “gcPBM binding intensity (ln)” value of the first is higher: 9.77 for the first, 9.37 for the second.

Compared with “TTAAAATATGTAGCTACACACACATAAACAAAATAA [CACACA_site8244]”, “TAATTATAATAATAACGTACATATATAAAATGGTGA [XGTACX_site8434]” is lower in “gcPBM binding intensity (ln)” value: 9.63 for the first, 9.47 for the second.

Going from “TGTAGTCTGGAGAAAAGTACACAGTATCTGGTAGCT [XGTACX_site2012]” to TATATATATATATAGGTGCTATAATTTATATACACA, the “gcPBM binding intensity (ln)” value falls from 9.16 to 9.11.

Compared with “TTTTTTTTTCTGAATTTATAATTCAAAAATATATAT [CACACA_negctrl_site300]”, “AGGAAGGAAATAAATCAACACACATATATTATATAT [CACACA_site8678]” is higher in “gcPBM binding intensity (ln)” value: 8.81 for the first, 9.69 for the second.

Compared with “ATATTTATTTTAATTTTTCTATATAAACTATTATGA [CACACA_negctrl_site739]”, “TTTCTAAGAAAAAAAAAAAAAAAAAAAAAGATACAA [GTGCAC_negctrl_site525]” is higher in “gcPBM binding intensity (ln)” value: 9.02 for the first, 9.04 for the second.

Compared with “TATATATATTATATATGTACATATTGTATATTTTTG [XGTACX_site4564]”, “ATTATAAATATCAGTGCACACATTTCTACGCAAAGT [CACACA_site4420]” is higher in “gcPBM binding intensity (ln)” value: 9.22 for the first, 9.47 for the second.

Going from “TATGTAAAATGTGTTTGTACTTATTTATTATATAAA [XGTACX_site2816]” to “AAGGAGCCTATGAACACACACATGTACAGATATTAA [CACACA_site6107]”, the “gcPBM binding intensity (ln)” value rises from 9.24 to 9.66.

First: CAAAATTATCAGAATCGTACATTTTTAACATATAAT [XGTACX_site7909]
Second: AAAACTATATTAATGTGTACACATCAAAATATTAAT [XGTACX_site6767]
The “gcPBM binding intensity (ln)” value of the first is lower: 9.09 for the first, 9.33 for the second.

Compared with “TTACAAAACACTTATACACACATATATATATATATA [CACACA_site2716]”, “TAATATATTAAAAATAGTACATAAGAAAAATAAGTA [XGTACX_site7957]” is higher in “gcPBM binding intensity (ln)” value: 9.42 for the first, 9.6 for the second.

Compared with “TATATATATAACATTGTACACACAAAGAAATAATAT [CACACA_site8998]”, “ATCGGTATATTATTACATGAATAAACTTACACACAC [TGCATGCA_negctrl_site21]” is higher in “gcPBM binding intensity (ln)” value: 9.7 for the first, 9.94 for the second.

First: TTGTATTAATAATTTTTTATATTATAGTTTATAATA [GTGCAC_negctrl_site130]
Second: TATATATAAAATGTATGTACATATTTATTTATATAG [XGTACX_site657]
The “gcPBM binding intensity (ln)” value of the first is higher: 9.08 for the first, 9.02 for the second.

First: AAGTGAAATAAAATATGTACATATATGTATATATAA [XGTACX_site4473]
Second: AAAAAAAAAGAATGTGAACACACACCGTGAATATAA [CACACA_site8342]
The “gcPBM binding intensity (ln)” value of the first is lower: 9.31 for the first, 9.57 for the second.

First: TTTTTTCTTCGTGTATTAAGTCACAATAGGAAAAAA [GTGCAC_negctrl_site644]
Second: TGTATTTATAGACACACACACTTTCTTTTTTTAAGA [CACACA_site7010]
The “gcPBM binding intensity (ln)” value of the first is lower: 8.72 for the first, 9.6 for the second.

Going from “AACAATTAGAACTTTGCACACTTCTATATATTTTGT [CACACA_site674]” to “TACATATATAAAAAAACACACACATATATATATATA [CACACA_site8315]”, the “gcPBM binding intensity (ln)” value falls from 9.6 to 9.54.

Going from “TGTATAATAAGGAAGAGTACAAGTAAATACACACAT [XGTACX_site2084]” to “AAAATGCATTTGATGTGTACGCATTATAAAGAACAA [XGTACX_site4203]”, the “gcPBM binding intensity (ln)” value falls from 9.87 to 9.19.

Compared with “CAAATAGCTAGCTGTGCACACAAACATATTTTCCAA [CACACA_site879]”, “CACAAACAAAGACACACACACACACGCACAAAAATG [CACACA_site7193]” is higher in “gcPBM binding intensity (ln)” value: 9.46 for the first, 10.1 for the second.

First: TAGCCCACATTTAATGGTACAGTGAGTATATATATG [XGTACX_site8044]
Second: ATGGAAATAAAAAAAAAAAAAAAAAAAAATATATAT [GTGCAC_negctrl_site67]
The “gcPBM binding intensity (ln)” value of the first is lower: 9.27 for the first, 9.3 for the second.

Going from “TACATAAAATACCATGCATGCTAGTAAAAAAAAAAA [TGCATGCA_site650]” to “TAATATATTTATAGAGCATGCAACGTAATATTATTA [TGCATGCA_site863]”, the “gcPBM binding intensity (ln)” value rises from 9.24 to 9.28.

Going from “ATCCCAGTAATATATAGTACATAACTATAAGAGAAT [XGTACX_site6909]” to “AAAGCACGCAAGAATACACACAAATATTATAAAAAA [CACACA_site6206]”, the “gcPBM binding intensity (ln)” value rises from 9.5 to 9.53.

Compared with “TAAAAAATTATAAAATGTACATAAAAAAAAAAAAAA [XGTACX_site3376]”, “AGGAAAACAAAAGATGCATGCTAATTTTCCTCGCGT [TGCATGCA_site627]” is higher in “gcPBM binding intensity (ln)” value: 9.19 for the first, 9.28 for the second.
